# In PubChem BioAssay AID602292 (National Center for Advancing Translational Sciences (NCATS), 2012):
# Among all 1,300 compounds or so, about 380 (29%) were called active. Inconclusive results, whose numbers are uncertain, are shown with a selection of clear calls. The call rests on the fitted dose curve; in most records, active means well fitted inhibition curve with a large enough effect; inconclusive means small, poorly fitted or top-dose-only effect; inactive means flat fitted curve, though single readings scatter. Potencies of inconclusive entries are left out as doubtful fits.
# Target: Thyrotropin receptor (Homo sapiens) (UniProt P16473)
# Test: qHTS for antagonists of the Thyroid Stimulation Hormone Receptor: Hit Validation in Primary Screen; further: nearly all actives have a fitted effect of over 80% in size
# Conditions: TSHR-expressing cells, cAMP antagonist mode
# Method in brief: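 Competitive HTRF detected cAMP in lysates of TSHR cells, read 30 minutes after antibody and d2 addition at room temperature. Before lysis, cells had 2 hours at 37 deg C with compound plus EC80 TSH, 4nM final.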
# Potency means the concentration at half of the fitted maximal effect; tags describe the fitted curve by direction and shape.
# Chain of UniProt P16473 (P16473 whole entry, looked up): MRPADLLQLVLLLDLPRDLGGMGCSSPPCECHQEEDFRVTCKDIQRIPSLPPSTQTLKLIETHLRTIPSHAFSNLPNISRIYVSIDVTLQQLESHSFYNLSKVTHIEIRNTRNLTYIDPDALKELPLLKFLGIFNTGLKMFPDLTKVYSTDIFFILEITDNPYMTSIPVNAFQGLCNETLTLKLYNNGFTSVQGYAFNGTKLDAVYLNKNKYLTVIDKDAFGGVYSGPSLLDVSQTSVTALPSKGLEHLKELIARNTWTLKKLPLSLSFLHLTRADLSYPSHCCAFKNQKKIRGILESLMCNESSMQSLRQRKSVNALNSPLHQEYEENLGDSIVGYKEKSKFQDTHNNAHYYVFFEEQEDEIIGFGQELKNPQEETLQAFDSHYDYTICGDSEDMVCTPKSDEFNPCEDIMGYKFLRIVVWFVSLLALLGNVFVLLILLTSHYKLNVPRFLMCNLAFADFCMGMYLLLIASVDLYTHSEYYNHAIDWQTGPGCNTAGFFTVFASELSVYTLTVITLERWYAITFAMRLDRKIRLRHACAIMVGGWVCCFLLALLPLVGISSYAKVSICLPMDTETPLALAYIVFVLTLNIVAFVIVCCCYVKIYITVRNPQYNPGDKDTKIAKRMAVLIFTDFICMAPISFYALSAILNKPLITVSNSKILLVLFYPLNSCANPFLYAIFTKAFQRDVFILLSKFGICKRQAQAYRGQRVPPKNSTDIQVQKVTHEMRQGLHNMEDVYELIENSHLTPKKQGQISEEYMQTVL
row,SMILES,Potency
1,CCN(C(=O)CN1C(=O)COc2ccc(S(=O)(=O)N3CCOCC3)cc21)c1ccc(OC)cc1,inactive
2,C=C(C)C1CCC(C)=C1COC(=O)Nc1ccccc1 (stereo not given),"inconclusive [inhibitor, partial curve]"
3,CCSc1nsc(NC(=O)Nc2cccc(OC)c2)n1,"inconclusive [inhibitor, partial curve]"
4,Cc1ccc(CN2CCc3c(OCc4ccc(F)cc4)cccc3C2=O)cc1,"inconclusive [inhibitor, partial curve]"
5,CC(=O)N1c2ccc(S(=O)(=O)N3CCC(C(=O)NC(C)c4ccccc4)CC3)cc2CC1C (stereo not given),inactive
6,O=C(NCCS(=O)(=O)N1CCN(c2ccccc2)CC1)C1CC(=O)N(c2ccccc2)C1 (stereo not given),inactive
7,CC(Oc1ccc(Cl)cc1Cl)C(=O)Nc1cccnc1 (stereo not given),"inconclusive [inhibitor, partial curve]"
8,C=CCN1C=CC(=C/C=C(/C#N)C(=O)OCC)C=C1,"inconclusive [inhibitor, partial curve, poor fit]"
9,COc1ccc(OCC(=O)NNC(=O)C2CCN(c3ncnc4sc(C)c(C)c34)CC2)cc1,"inconclusive [inhibitor, partial curve, poor fit]"
10,O=[N+]([O-])c1cc(Br)c(O)c(C=Nc2ccc(N3CCOCC3)cc2)c1,"inconclusive [inhibitor, partial curve]"
11,CCSCCc1nnc(NC(=O)Nc2cccc(C(F)(F)F)c2)s1,"inconclusive [inhibitor, partial curve]"
12,COc1cccc(-c2cc(C(=O)Nc3ccn(Cc4ccc(C)cc4)n3)no2)c1,"inconclusive [inhibitor, partial curve]"
13,Cc1ccc(N2CCN(S(=O)(=O)c3ccc(F)cc3)CC2)c(C)c1,"inconclusive [inhibitor, partial curve]"
14,CS(=O)(=O)c1ccc(C(=O)OCC(=O)NCc2cccs2)cc1[N+](=O)[O-],"inconclusive [inhibitor, partial curve]"
15,O=C(N=C1SC2CS(=O)(=O)CC2N1c1ccc(F)cc1)C1CC1 (stereo not given),inactive
16,CC1Cc2ccccc2N1C(=O)COC(=O)/C=C/c1ccc(F)cc1 (stereo not given),"inconclusive [inhibitor, partial curve]"
17,Cc1nn(-c2nc3ccccc3s2)c(N)c1-c1ccccc1,"inconclusive [inhibitor, partial curve]"
18,Cc1nn(S(=O)(=O)c2ccc(F)cc2)c(C)c1S(=O)(=O)N1CCOCC1,inactive
19,O=C(COc1ccc(Cl)cc1)Nc1ncc([N+](=O)[O-])s1,"inconclusive [inhibitor, partial curve]"
20,Cc1cccc(N2CCN(C(=O)C3(S(=O)(=O)c4ccc(Cl)cc4)CC3)CC2)c1C,"inconclusive [inhibitor, partial curve]"
21,Cc1ccccc1NC(=O)Cc1nc(COC(=O)c2cccc([N+](=O)[O-])c2)cs1,inactive
22,Cc1ccc(CNC(=O)CSc2nnc3c(n2)[nH]c2ccccc23)cc1,inactive
23,N#C/C(=C\c1ccc(O)c([N+](=O)[O-])c1)c1nc2ccccc2s1,active: 6.75 µM
24,CCOc1cc(/C=C/c2ccc3cccc([N+](=O)[O-])c3n2)ccc1OCC(=O)N(C)C,"inconclusive [inhibitor, partial curve]"

row,SMILES,Potency
1,COc1ccc(NC(=O)c2c(F)cccc2F)cc1S(=O)(=O)Nc1ccc(Br)cc1,"inconclusive [inhibitor, partial curve]"
2,CS(=O)(=O)c1ncc(Cl)c(C(=O)Nc2ccc3ccccc3c2)n1,active: 30.1 µM
3,N#C/C(=N\Nc1ccc(S(=O)(=O)N2CCCCCC2)cc1)C(N)=S,"inconclusive [inhibitor, partial curve]"
4,COc1ccc(-c2nc(NC(=O)c3cc(C(C)(C)C)nn3C)sc2C)cc1,"inconclusive [inhibitor, partial curve]"
5,Cc1ccc(CS(=O)(=O)c2ncc(Cl)c(C(=O)Nc3nnc(C(C)C)s3)n2)cc1,active: 23.9 µM
6,CC(C)(C)c1cc2nc3c(c(=O)n2[nH]1)CN(Cc1ccccc1)C3=O,"inconclusive [inhibitor, partial curve, poor fit]"
7,CCN1C(=NCc2ccc(OC)cc2)N[C@@H](CCc2ccccc2)[C@H](C(=O)NCc2ccc(OC)cc2)[C@H]1C,inactive
8,CCN=c1scc(-c2cccs2)n1/N=C/c1cc(OC)ccc1O,"inconclusive [inhibitor, partial curve, poor fit]"
9,Cc1ccc(C(=O)NCCNc2ncc(C(F)(F)F)cc2Cl)cc1[N+](=O)[O-],"inconclusive [inhibitor, partial curve]"
10,O=S(=O)(c1ccc(Cl)cc1)N1CCN(c2ncnc3sccc23)CC1,"inconclusive [inhibitor, partial curve]"
11,COC(=O)c1ccc(CN2C(=O)NC(Cc3c[nH]c4ccccc34)C2=O)cc1 (stereo not given),"inconclusive [inhibitor, partial curve, poor fit]"
12,COc1cc(/C=C(\C#N)c2ccccn2)ccc1OCc1ccc(Cl)cc1,"inconclusive [inhibitor, partial curve, poor fit]"
13,O=S(=O)(NCc1csc(-c2ccccc2)n1)c1ccc(Cl)s1,"inconclusive [inhibitor, partial curve, poor fit]"
14,CCOc1ccc(CNC(=O)CCCn2nc(CC)n3c(cc4occc43)c2=O)cc1,inactive
15,COc1ccc(CN(C)C(=O)COC(=O)c2cnc(Cl)c(Cl)c2)cc1,"inconclusive [inhibitor, partial curve]"
16,Cc1ccc(-n2[nH]c(C)c(/C=N/Nc3ccc([N+](=O)[O-])cc3[N+](=O)[O-])c2=O)cc1,active: 6.75 µM
17,O=C(NC1CCCCC1)c1cc(-c2ccccc2O)on1,inactive
18,CC(C)OCCCn1c(=O)c2ccccc2n2c(CCC(=O)NC3CCN(Cc4ccccc4)CC3)nnc12,inactive
19,Cc1nn(Cc2ccccc2)c(C)c1NC(=O)c1noc2c1CCc1ccccc1-2,active: 37.9 µM
20,Cc1ccccc1-n1nnnc1SC1CCOC1=O (stereo not given),inactive
21,CCOc1ccc(NS(=O)(=O)c2cc(NC(=O)c3cccc(C)c3)ccc2Cl)cc1,"inconclusive [inhibitor, partial curve]"
22,O=C(Nc1ccccc1)c1ccc(Br)c(S(=O)(=O)Nc2cccnc2)c1,"inconclusive [inhibitor, partial curve]"
23,O=C(Nc1nc(-c2ccc(Cl)cc2Cl)cs1)c1ccc(OCC2CCCO2)cc1 (stereo not given),"inconclusive [inhibitor, partial curve]"
24,O=C(Nc1cc(Sc2nc3ccccc3s2)cc([N+](=O)[O-])c1)c1ccccc1F,inactive

row,SMILES,Potency
1,O=C(O)c1ccc(CNC(=O)c2ccc3c(c2)C(=O)N(Cc2cccnc2)C3=O)cc1,inactive
2,O=C(c1ccco1)N1N=C(C2CCCCC2)CC1(O)C(F)(F)F (stereo not given),inactive
3,COc1ccc2nc(C)cc(N3CCN(S(=O)(=O)c4ccccc4F)CC3)c2c1,"inconclusive [inhibitor, partial curve, poor fit]"
4,COc1ccccc1C(=O)NCCC(=O)Nc1ccc(OC(F)(F)F)cc1,inactive
5,Cc1ccc(CCC(=O)NCc2ccccc2)o1,inactive
6,CCCC(=O)Nc1nnc(CCc2ccccc2)s1,inactive
7,CCOC(=O)c1c(S(=O)(=O)NCC(=O)Nc2cccc(C)c2C)c(C)n(C)c1C,inactive
8,CC1CCN(S(=O)(=O)c2cccc(C(=O)N3CCN(c4ccc(F)cc4)CC3)c2)CC1,"inconclusive [inhibitor, partial curve, poor fit]"
9,CCc1ccccc1NC(=O)C1CCCN(S(=O)(=O)c2ccc3c(c2)CC(C)N3C(C)=O)C1 (stereo not given),inactive
10,O=C(NCc1ccccc1)c1c(Cl)nc(Cl)c(Cl)c1Cl,"inconclusive [inhibitor, partial curve]"
11,CS(=O)(=O)c1nc(-c2ccc(Br)cc2)cc(-c2ccccc2)c1C#N,"inconclusive [inhibitor, partial curve]"
12,O=C(Nc1ccc2oc(-c3ccccc3F)nc2c1)c1ccc2c(c1)OCCO2,active: 30.1 µM
13,CS(=O)(=O)Cc1ccc(C(=O)Nc2cccc(-c3nc4ccccc4[nH]3)c2)cc1,inactive
14,CCOC(=O)c1c(NC(=O)/C=C/C(=O)O)sc(C)c1-c1ccc(Cl)cc1,active: 21.3 µM
15,COc1ccc(-c2csc3ncn(Cc4ccccc4)c(=O)c23)cc1,inactive
16,O=C1c2cccc3c([N+](=O)[O-])ccc(c23)C(=O)N1c1ccc(Cl)cn1,"inconclusive [inhibitor, partial curve]"
17,CCOC(=O)c1c(NC(=O)/C=C/C(=O)O)sc(C)c1-c1ccc(C)c(C)c1,active: 23.9 µM
18,O=C(Nc1cccc(F)c1)c1ccc(CSc2ccccc2)o1,"inconclusive [inhibitor, partial curve]"
19,COc1ccccc1CNS(=O)(=O)c1cc(-c2cc(C)no2)ccc1C(C)C,"inconclusive [inhibitor, partial curve]"
20,O=C(Cn1nc(Cc2cccnc2)c2ccccc2c1=O)NCC1COc2ccccc2O1 (stereo not given),"inconclusive [inhibitor, partial curve]"
21,CCOc1cc(NC(=O)C2CC2)c(OCC)cc1NC(=O)c1cccc(F)c1,inactive
22,Nc1nc(SCc2ccccc2Cl)ns1,"inconclusive [inhibitor, partial curve, poor fit]"
